Test results reported in the GPR68 mutational scans of Howard et al. (2025).
Scores whose standard error is large were omitted. Not listed are two conditions whose scores span a narrow range. Names with del lack the residues named; names with ins carry added residues between the positions named. For some of these results: The data file names ogerin without a concentration.

B1: GPR68, Q15743 (parent)
chain: MGNITADNSSMSCTIDHTIHQTLAPVVYVTVLVVGFPANCLSLYFGYLQIKARNELGVYLCNLTVADLFYICSLPFWLQYVLQHDNWSHGDLSCQVCGILLYENIYISVGFLCCISVDRYLAVAHPFRFHQFRTLKAAVGVSVVIWAKELLTSIYFLMHEEVIEDENQHRVCFEHYPIQAWQRAINYYRFLVGFLFPICLLLASYQGILRAVRRSHGTQKSRKDQIQRLVLSTVVIFLACFLPYHVLLLVRSVWEASCDFAKGVFNAYHFSLLLTSFNCVADPVLYCFVSETTHRDLARLRGACLAFLTCSRTGRAREAYPLGAPEASGKSGAQGEEPELLTKLHPAFQTPNSPGSGGFPTGRLA

Tests used:
[1] = variants of: B1; experiment: cAMP reporter score (Enrich2 score, wild type = 0); higher = more signal; HEK293T, FACS bins
[2] = variants of: B1; experiment: surface expression score (Enrich2 score, wild type = 0); higher = more signal; HEK293T, FACS bins

Variant | cAMP reporter score ([1]; pH 5.5) | cAMP reporter score ([1]; pH 6) | cAMP reporter score ([1]; pH 6, modulator: ogerin) | cAMP reporter score ([1]; pH 6.5, modulator: ogerin) | surface expression score [2]
E339del | -0.377 | -0.215 | -0.158 | -0.491 | -0.334
K343T | 0.361 | 1.03 | 1.09 | 0.986 | 1.15
K343D | 0.575 | 0.329 | 0.546 | -0.24 | 2.75
K343N | -0.451 | -0.076 | -0.782 | -0.135 | 0.123
K343I | -0.342 | -0.514 | 0.716 | 0.302 | 1.15
K343A | 1.01 | 1.84 | 0.849 | 1.39 | 0.951
K343E | -0.429 | 0.15 | -0.417 | -0.069 | -0.119
K343Y | 0.308 | -0.909 | 0.553 | -0.975 | 0.626
K343F | 1.45 | -0.191 | 0.823 | 0.469 | 1.77
K343R | 0.394 | -0.171 | 0.393 | 0.121 | 0.664
K343H | 0.705 | 0.608 | 0.933 | 0.704 | 0.585
K343V | 0.23 | – | 0.422 | 0.589 | 1.3
K343M | -0.712 | -0.616 | -0.3 | -0.344 | -0.066
K343W | -0.344 | -0.162 | 0.026 | -0.72 | 0.288
K343P | 1.76 | – | 1.37 | 1.78 | 1.31
K343L | 1.14 | -0.965 | 1.26 | – | -0.054
K343C | 0.579 | – | – | – | 0.75
K343S | 0.947 | 0.217 | 0.581 | 1.73 | 0.843
K343G | 1.53 | 0.386 | 1.29 | 1.35 | 1.21
L344_H345insGS | 0.588 | 0.236 | 0.18 | 0.51 | 0.814
L344Q | 0.376 | 2.65 | 0.794 | 0.818 | –

Variant | cAMP reporter score ([1]; pH 5.5) | cAMP reporter score ([1]; pH 6) | cAMP reporter score ([1]; pH 6, modulator: ogerin) | cAMP reporter score ([1]; pH 6.5, modulator: ogerin) | surface expression score [2]
L344W | 1.04 | 0.227 | 0.722 | 1.37 | 0.613
L344V | 0.589 | 0.51 | 0.512 | 0.587 | 0.906
L344S | 0.598 | – | 0.757 | 1.94 | 1.21
L344N | 0.37 | 2.27 | 0.442 | -0.058 | 1.28
L344C | -0.485 | – | 0.203 | -0.343 | -0.8
L344D | 0.003 | 1.23 | 0.134 | 0.564 | -0.725
L344M | -0.741 | 0.008 | -1.32 | -0.213 | 0.336
L344G | 0.069 | 0.778 | 0.89 | 0.531 | 0.609
L344E | 0.251 | 0.975 | 0.124 | 0.824 | 1.05
L344Y | 0.233 | 0.063 | -0.087 | 1.26 | 0.238
L344A | 1.23 | 0.201 | 1.05 | 1.58 | 1.45
L344T | 1.08 | – | 0.364 | – | -0.243
L344K | 0.721 | 0.874 | 1.06 | 0.982 | 1.27
L344P | -0.58 | -0.358 | -0.838 | -0.349 | -0.554
L344R | 0.772 | 0.589 | 0.672 | 1.22 | 1.67
L344H | 0.88 | 1.93 | 0.443 | 1.73 | 1.36
L344I | 1.68 | 0.958 | 0.449 | 0.937 | 1.21
L344F | 0.847 | 1.62 | 0.798 | 0.736 | 0.296
T342_K343del | 0.984 | 1.09 | 1.2 | 0.661 | 0.588
L340del | 0.621 | 0.222 | 0.494 | -0.061 | 0.878
E339_L340del | 0.662 | 0.912 | 1.02 | 0.121 | 0.927

Variant | cAMP reporter score ([1]; pH 5.5) | cAMP reporter score ([1]; pH 6) | cAMP reporter score ([1]; pH 6, modulator: ogerin) | cAMP reporter score ([1]; pH 6.5, modulator: ogerin) | surface expression score [2]
P346_A347del | 0.545 | 0.95 | 0.974 | 0.157 | 0.252
T342_K343insGSG | 0.266 | 0.537 | 0.161 | 1.07 | 0.133
P338N | 1.1 | -0.016 | 0.506 | 0.374 | 0.57
P338T | 0.475 | -0.769 | 0.205 | 0.048 | -0.452
P338F | 0.046 | -1.58 | -0.197 | 0.242 | 0.341
P338S | -0.485 | – | -1.47 | -0.395 | -0.434
P338Y | -0.471 | 0.595 | -0.627 | 0.451 | -0.172
P338I | 0.677 | 0.307 | 0.519 | 0.046 | 0.946
P338E | 1.34 | -0.57 | -0.042 | -0.403 | –
P338W | 0.321 | -1.58 | -0.483 | -0.934 | -0.582
P338G | -0.294 | -0.538 | 0.171 | -0.366 | 0.014
P338D | 1.42 | 0.311 | 0.851 | -0.243 | 1.05
P338R | 0.323 | – | 1.09 | 1.05 | 0.777
P338V | 0.845 | 1.5 | 0.732 | 1.31 | 0.697
P338Q | 0.686 | -0.371 | 0.254 | 0.095 | -0.706
P338M | -0.324 | -0.943 | 0.197 | -0.206 | -0.26
P338H | 0.608 | -0.216 | 1.42 | 1.4 | 0.737
P338K | -0.368 | -0.619 | -0.637 | 0.184 | -0.057
P338_L340del | 0.961 | – | 0.624 | 0.826 | 1.71
K343_L344insGS | 1.16 | 0.815 | 0.977 | 1.14 | 0.832
